Assay results reported in PMC6212790.
Some of the results follow. At the low end of the ranking, values are background and their order means little.

biological target: T1, GST-Rok-C97-191 (UniProt O34857); assay: protein binding microarray; settings: Rok is a gene silencer of Bacillus subtilis; high values mean tight binding; most listed sequences are background and not binding sites; double strand, one strand shown;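 note: rank score from −0.5 (least bound) to 0.5 (best bound)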
T1 sequence: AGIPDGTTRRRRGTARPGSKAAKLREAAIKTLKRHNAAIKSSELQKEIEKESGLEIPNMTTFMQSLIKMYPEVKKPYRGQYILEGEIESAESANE

| Sequence | binding signal [E-score] |
| --- | --- |
| CAATTAAG | -0.0793 |
| TAGCATGA | 0.037 |
| GATGTTTA | 0.0206 |
| TCAAATCA | -0.157 |
| ATAGCGCA | 0.176 |
| ATCTGTAA | 0.106 |
| TGCCGCCA | -0.101 |
| TGGTGTAA | -0.0152 |
| CATATACA | 0.22 |
| GACAGAAA | -0.0766 |
| ATGGACCA | -0.193 |
| AGGCGTTG | -0.182 |
| ACGTATAC | 0.137 |
| CACACCAA | 0.0569 |
| GATCCACA | -0.0305 |
| GGACTCCC | -0.202 |
| CGGGTAGA | 0.165 |
| CACTCTAA | -0.143 |
| ACGGAGCT | -0.129 |
| ACTCCCGC | -0.118 |
| TAAGGCAA | 0.0603 |
| ATAAAAAA | 0.271 |
| CTGACCCC | -0.324 |
| CACAAATC | 0.0854 |
| GAAATCCC | -0.152 |

| Sequence | binding signal [E-score] |
| --- | --- |
| CCCCTACC | -0.253 |
| CCTCTTTC | -0.037 |
| CCTCCACG | -0.196 |
| CACGAGCC | -0.25 |
| ATGACGAC | -0.13 |
| CGACCCCA | -0.207 |
| CATGTTCC | -0.0917 |
| CTATAGAG | 0.00791 |
| CCGGACTA | -0.0594 |
| GTCTAAGA | -0.0359 |
| GAACCATA | 0.0821 |
| ACTGGAAG | 0.00411 |
| GCGACCGA | -0.313 |
| AACGATTG | 0.0381 |
| AACTATCC | 0.224 |
| GCGGATGA | -0.151 |
| AGGCCACA | -0.202 |
| GAGTTTCC | -0.0642 |
| ACTAGCAG | 0.138 |
| AGTGTGAC | -0.247 |
| AGTGTGAA | 0.168 |
| GCTGTAAC | -0.0357 |
| CCGTGGCA | -0.196 |
| ATGTTGAA | 0.0522 |
| AGAAGAAT | 0.086 |

| Sequence | binding signal [E-score] |
| --- | --- |
| CTTATGTA | 0.0579 |
| GGGTTGCA | -0.245 |
| TGCATCCA | -0.0993 |
| AATCGCTG | -0.11 |
| CAGTGAAC | -0.0197 |
| AGTGACCC | -0.29 |
| CTTTCAGC | -0.00114 |
| ATAGGAGG | -0.135 |
| CGTTGCTC | -0.0643 |
| CGTAAAGC | -0.0457 |
| GACACGTA | -0.114 |
| CTAGATCC | 0.212 |
| ATTGGAAA | -0.0288 |
| CTTGTTCC | 0.0569 |
| ATCGATTC | 0.123 |
| AAGGAAGA | -0.0907 |
| GGGATTCA | -0.147 |
| CCAACACA | 0.0764 |
| GTGGATGA | -0.12 |
| AAATGAGC | -0.0788 |
| GGCCTGGA | -0.201 |
| GCTTAGCC | -0.0474 |
| AGCGGGAT | -0.0346 |
| ATACCGAT | 0.305 |
| GCGAGCGC | -0.207 |

| Sequence | binding signal [E-score] |
| --- | --- |
| AACTAGCA | 0.346 |
| GGGGTTAA | -0.0586 |
| TATAAAAA | 0.244 |
| GGCCGCCA | -0.303 |
| AGTCTATG | -0.158 |
| GCTAGTCC | -0.0508 |
| AAAACATT | 0.00221 |
| CTGTCGGC | -0.0494 |
| GAAAGCTC | -0.157 |
| AGAGGACT | -0.122 |
| TCGTGGAA | -0.0535 |
| CGGGCTAC | -0.0334 |
| GCTCGCGA | -0.171 |
| AGCGTGTA | 0.0551 |
| AAGGGTTA | -0.0955 |
| AAATTTAA | 0.299 |
| TAAGGATA | 0.0194 |
| AGCGGCTG | -0.0881 |
| CCTCTGCC | -0.276 |
| AGGTTGAG | 0.054 |
| AGCACGGC | -0.202 |
| GATTCAAA | -0.00653 |
| GTTTTGTA | 0.135 |
| CTGCACGA | -0.102 |
| TACTTTCA | 0.174 |

| Sequence | binding signal [E-score] |
| --- | --- |
| GCTGAATA | 0.196 |
| AACTCAAT | 0.0876 |
| ACCAGAGA | 0.0737 |
| CAAGTAAA | 0.272 |
| GAGAATGA | 0.00699 |
| AACCAATG | -0.227 |
| AAGTTGTC | 0.0086 |
| AACAGACA | 0.13 |
| ATGTTGAG | 0.086 |
| AACGTCTG | -0.145 |
| TACTTGCA | 0.167 |
| AAATGGCA | -0.0482 |
| ATTGTTCG | 0.062 |
| AGAATGGC | -0.0476 |
| ATGGTTGC | -0.131 |
| GGCATTAC | 0.00443 |
| GAGCTGTA | 0.0865 |
| ATTTACTG | 0.319 |
| CTGAATCC | -0.0267 |
| ATGAGATC | -0.0303 |
| ATCAGGAC | -0.186 |
| ACATATAC | 0.302 |
| CCCGCTTA | -0.206 |
| CAATTCGA | -0.104 |
| CCTTAAAG | -0.0637 |

| Sequence | binding signal [E-score] |
| --- | --- |
| CCCCCACG | -0.281 |
| ACGTCACG | -0.0444 |
| ACTTCAGG | 0.0645 |
| ACAGGCGA | -0.176 |
| GTTGCTTA | 0.137 |
| CATCTTGC | -0.092 |
| ACAGGCTC | -0.266 |
| ACGCAAGG | -0.223 |
| GGTTTCAC | -0.212 |
| AACCAAGT | -0.121 |
| ACAGTACT | 0.118 |
| AGCGGCCA | -0.119 |
| AGGGTAAT | 0.174 |
| ATCTGCCA | -0.000824 |
| TTGAAAAA | 0.0858 |
| CAAGGCAA | -0.296 |
| GAACGCCA | -0.0475 |
| CAGATCTC | -0.12 |
| AGAATAAA | 0.0986 |
| GCTTCGGA | 0.0142 |
| CTACCGAC | 0.0745 |
| GAAATAAC | 0.164 |
| GATTGGAC | -0.0622 |
| GAACGTCA | -0.14 |
| ACACAGGC | -0.235 |

| Sequence | binding signal [E-score] |
| --- | --- |
| CGTTGCGA | -0.206 |
| AGTGAAGC | -0.199 |
| CTATTCAG | 0.102 |
| GCAGACCC | -0.261 |
| AACAATAC | 0.238 |
| AGCTCCGA | -0.023 |
| CGTGAGAG | 0.015 |
| ATCCTATC | 0.16 |
| GTCACGTA | 0.0715 |
| GCAGTGTA | 0.159 |
| AAGTCGAT | -0.0475 |
| CCCTTGGC | -0.209 |
| AAACTTAT | 0.224 |
| ACGACCTG | -0.171 |
| ACGAGTCG | -0.00473 |
| AAGACCAG | -0.258 |
| GCCGACAC | -0.137 |
| CACCTGAC | -0.093 |
| CCAACCCA | 0.0477 |
| ACAACTTC | 0.0473 |
| ATCGACGA | 0.0426 |
| TATGCGCA | 0.136 |
